Assay results taken from PubChem BioAssay AID2451 (National Center for Advancing Translational Sciences (NCATS), 2010).
“And” between values parts separate entries of the source, which are not always exact repeats. Equal entries are not always repeated. Among all 290,000 compounds or so, about 2,100 (0.72%) were called active. Inconclusive means that the source gave no clear call. Such entries were picked first, then a sample of the others. Calls follow the shape of the dose curve; as a rule, active = well fitted inhibition curve with a large enough effect; inconclusive = small, poorly fitted or top-dose-only effect, or effect the other way; inactive = flat fitted curve, though single readings scatter. Where the call is inconclusive, the potency comes from a doubtful curve fit.

target: Fructose-bisphosphate aldolase (Giardia intestinalis (strain ATCC 50803 / WB clone C6)) (UniProt A8B2U2); test: qHTS Assay for Inhibitors of Fructose-1,6-bisphosphate Aldolase from Giardia Lamblia; details: purified Giardia FBPA; activity, negative = inhibition: at 59.6 µM (top of the series) unless noted; also: nearly all actives have a fitted effect of over 55% in size
Sequence of UniProt A8B2U2 (A8B2U2 whole entry, looked up): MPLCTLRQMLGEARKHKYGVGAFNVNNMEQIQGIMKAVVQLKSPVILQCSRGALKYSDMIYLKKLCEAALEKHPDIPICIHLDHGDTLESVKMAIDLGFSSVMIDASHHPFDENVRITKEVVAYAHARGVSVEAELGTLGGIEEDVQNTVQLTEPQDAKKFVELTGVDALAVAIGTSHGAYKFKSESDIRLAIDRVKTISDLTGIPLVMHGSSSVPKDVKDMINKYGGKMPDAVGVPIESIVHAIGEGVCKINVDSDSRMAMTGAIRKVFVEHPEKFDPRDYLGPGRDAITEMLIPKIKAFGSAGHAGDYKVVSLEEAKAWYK
Summary of the method: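 40 nM FBPA preincubated 10 min at RT with compound (up to 57.5 uM final), then substrate plus GAPDH/TPI/NAD/arsenate coupling and diaphorase/resazurin added. Fluorescence read after 20 min at RT, 525/598 nm.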
% is scaled to controls: 0 for no effect and ±100 for the full control effect; potency is read from the fitted curve at half-maximal effect; tags tell the direction and shape of the fitted curve.

Compound	Potency	activity, negative = inhibition
CCCCC1=CC2=C(c3ccco3)C(=O)C(C)(OC(=O)c3ccc(OC)cc3)C(=O)C2=CN1Cc1ccco1 (stereo unspecified)	inconclusive: 14.1 µM [inhibitor, partial curve]	
CC(C)NC[C@H](O)c1ccc(O)c(O)c1	active: 7.92 µM and active: 9.98 µM	
Nc1c(N2CCOCC2)cc(Cl)c2nonc12	inconclusive: 3.54 µM [inhibitor, full curve]	
Cc1ccc2ncc(NC(=O)c3ccc(F)cc3)c(=O)n2c1	inactive	
COc1ccccc1NC(=S)N(Cc1ccccc1)Cc1cccs1	inconclusive: 4.46 µM [inhibitor, full curve, poor fit]	
O=C1C(=O)c2cccc3cccc1c23	inconclusive: 2.23 µM [inhibitor, full curve]	
CC(=O)Nc1sc2c(c1CN1CCN(c3ccc(F)cc3)CC1)CCCC2	inactive	
COc1ccc(CNc2cc(-c3ccccc3Cl)ncn2)c(OC)c1	inactive	
O=C(O)c1cc(N(Cc2ccccc2O)Cc2ccccc2O)ccc1O	inconclusive: 19.9 µM [inhibitor, partial curve]	
CC(NC(=S)Nc1ccc(F)cc1)c1ccccc1 (stereo unspecified)	inactive	
CC(C)(C)C1=CC(=O)C(N2CCOCC2)=CC1=O	active: 1.77 µM	
Cc1nn(-c2ccccc2)c(Cl)c1/C=C1\SC(=S)N(CCCCCC(=O)O)C1=O	inconclusive: 22.3 µM [activator, single point]	
CN1CCc2c(sc3c2C(=O)NC(c2cn(Cc4ccccc4)c4ccccc24)N3)C1 (stereo unspecified)	inconclusive: 22.3 µM [inhibitor, partial curve]	
COC(=O)CCC(=O)Nc1cccc2c(NC(=O)CCC(=O)OC)cccc12	inconclusive: 9.98 µM [inhibitor, partial curve]	
COc1ccc(NC(=O)CCCCn2c(=O)[nH]c3ccccc3c2=O)cc1	inactive	
Cc1c(C(=O)Oc2cccc3cccnc23)cccc1[N+](=O)[O-]	inconclusive: 15.8 µM [inhibitor, partial curve]	
CNC(=S)NC1CC2CCCC(C1)N2Cc1ccco1 (stereo unspecified)	inactive	
NS(=O)(=O)c1ccc(NC(=S)NC(=O)c2cccnc2)cc1	inconclusive: 17.7 µM [inhibitor, partial curve]	
O=[N+]([O-])c1cccc(/C=N/Nc2nc(C(Cl)(Cl)Cl)nc3ccccc23)c1	inconclusive: 17.7 µM [inhibitor, partial curve]	
Cn1c(-c2ccc3c(c2)OCO3)cnc1NCc1ccccc1Cl	inconclusive: 19.9 µM [inhibitor, partial curve]	
CCN(CC)C(=O)CC(c1cc(OC)c(OC)c(OC)c1)c1c(O)cc(OC)cc1OC (stereo unspecified)	inconclusive: 17.7 µM [inhibitor, single point]	
COc1ccc(-n2c(C(C)n3nc(C)c([N+](=O)[O-])c3C)n[nH]c2=S)cc1 (stereo unspecified)	inconclusive: 3.54 µM [inhibitor, partial curve]	
Cc1[nH]c2ccccc2c1SCCNC(=O)c1ccc(S(=O)(=O)N2CCCC2)cc1	inactive	
Brc1c(NC2=NCCN2)ccc2nccnc12	inconclusive: 17.7 µM [inhibitor, partial curve] and inconclusive: 11.2 µM [inhibitor, partial curve]	

Compound	Potency	activity, negative = inhibition
CC(C)c1ccc(NC(=O)C2CCCN(S(=O)(=O)c3ccc4c(c3)C(C)(C)C(=O)N4C)C2)cc1 (stereo unspecified)	inactive	
CCCCCCCCNC(=S)NCCN1CCCCC1	inconclusive: 22.3 µM [inhibitor, partial curve]	
Nc1c(C(=O)NCc2ccco2)c2nc3ccccc3nc2n1CCc1ccc(F)cc1	inconclusive: 15.8 µM [inhibitor, single point]	
O=[N+]([O-])c1ccccc1OCCCN1CCc2ccccc2C1	inconclusive: 31.6 µM [inhibitor, single point]	
Cc1ccn2c(=O)c(C(=O)NCCN3CCOCC3)c(O)nc2c1		inconclusive: 31.6% [activator]
COc1ccc(NC2CCCN(C(=O)CCCn3cncn3)C2)cc1OC (stereo unspecified)	inconclusive: 25.1 µM [inhibitor, partial curve]	
CNC(=O)/C(C#N)=C/c1c(N(Cc2ccccc2)Cc2ccccc2)nc2c(C)cccn2c1=O	inactive	
CC(C)S(=O)(=O)c1csc(C(=O)NN)c1Cl	inconclusive: 14.1 µM [inhibitor, partial curve]	
CN(C)C(=O)COC(=O)c1ccccc1Nc1ccc(SC(F)F)cc1	inactive	
COc1ccc(N2C(=O)[C@@H]3[C@H](C2=O)[C@H]2C=CC=NN2[C@@H]3C(=O)Nc2ccc(Cl)cc2)cc1	inconclusive: 17.7 µM [inhibitor, partial curve]	
CN(Cc1ccccc1)C(=S)NC(=O)c1cccs1	active: 12.6 µM	
C=CCn1c(C)nnc1SCC(=O)Nc1nccs1	inconclusive: 22.4 µM [inhibitor, partial curve]	
C/C(=N\Nc1ccccn1)c1ccc(S(=O)(=O)NCc2ccco2)cc1	inactive	
CN(C)S(=O)(=O)c1ccc(C(=O)Nc2nnc(-c3ccco3)o2)cc1	active: 6.29 µM	
Cc1nc2ccc(NC(=S)N3CCCC3)cc2nc1C	inconclusive: 6.29 µM [inhibitor, partial curve]	
COc1cc(OC)cc(C(=O)N2CCN(Cc3ccccc3C(F)(F)F)CC2)c1	inconclusive: 17.7 µM [inhibitor, single point]	
COc1cc(SC)ccc1C(=O)Nc1cccc(C)n1	inactive	
CCCCC#CC1C=CC(Oc2cc(OC)c(OC)c(OC)c2)C(CO)O1 (stereo unspecified)		inactive: 3.2% [at 12.9 µM]
COc1ccc(C(=O)OC(C)CN2CCN(C)CC2)cc1 (stereo unspecified)	inconclusive: 14.1 µM [inhibitor, partial curve]	
CN1CCN(C(=S)Nc2cc([N+](=O)[O-])ccc2Cl)CC1	inconclusive: 15.8 µM [inhibitor, partial curve]	
COC[C@H]1OC(=O)c2coc3c2[C@@]1(C)C1=C(C3=O)[C@H]2CCC(=O)[C@@]2(C)C[C@H]1OC(C)=O	inactive	
COc1ccc(S(=O)(=O)N(C)C)cc1NC(=O)CSc1nnc(-c2cccnc2)o1	inactive	
Cc1cc(O)c(C=O)c2c1C(=O)Oc1c(COC(=O)/C=C/C(=O)O)c(O)c(C(=O)O)c(C)c1O2	inconclusive: 19.9 µM [inhibitor, single point]	
COC(=O)c1cccc(-n2c(CCC(=O)O)ccc2-c2cccs2)c1	inactive	

Compound	Potency	activity, negative = inhibition
COc1ccc(CC(=O)N/N=C(\C)CC(=O)Nc2ccc(N(C)C)cc2)cc1	inactive	
CCOC(=O)c1c(C)nc(C(Cl)(Cl)Cl)nc1N	inconclusive: 15.8 µM [inhibitor, partial curve]	
COc1ccc(C2C(C(=O)c3ccco3)=C(O)C(=O)N2CCOCCO)cc1OC (stereo unspecified)	inconclusive: 25.1 µM [inhibitor, partial curve]	
CCCc1cc(SCC(=O)Nc2c(C)n(C)n(-c3ccccc3)c2=O)n2c(nc3ccccc32)c1C#N	inconclusive: 0.889 µM [inhibitor, full curve]	
O=C(c1cccs1)N1CCN(Cc2ccccn2)CC1	inconclusive: 3.54 µM [inhibitor, full curve]	
CC/C(=N\N1CCCCCC1)c1c(O)n(-c2ccc(C)cc2)c(=O)[nH]c1=O	inactive	
COC(=O)C(CC(C)C)NC(=O)CSc1nc(-c2ccccc2)c(C#N)c(=O)[nH]1 (stereo unspecified)	inconclusive: 22.3 µM [activator, single point]	
CN(C)c1oc(COc2ccc(F)cc2)nc1C#N	inactive	
CCOc1ccc(S(=O)(=O)NC(C)C(=O)NCc2ccccn2)cc1 (stereo unspecified)	inactive	
O=C(/C=C/c1ccccc1)Nc1sc2c(c1C(=O)O)CCC2	inconclusive: 22.3 µM [inhibitor, single point]	
Oc1ccc(Nc2nc(-c3ccccc3O)nc3ccccc23)cc1	inconclusive: 35.5 µM [inhibitor, single point]	
CCC[C@H]1C[C@H](C(=O)NC(C(C)Cl)C2O[C@@H](SC)C(OP(=O)(O)O)[C@@H](O)[C@@H]2O)N(C)C1 (stereo partly specified)	inactive	
CN(C)c1ccc(CNc2ccc3c(c2)ncn3C)cc1	inactive	
Oc1ccc(Cl)cc1CNCC1CCCO1 (stereo unspecified)	inactive	
O=C(O)c1ccc(NC2=C(n3nnc4ccccc43)C(=O)c3ccccc3C2=O)cc1	inconclusive: 0.706 µM [inhibitor, full curve]	
COc1ccc(NS(=O)(=O)c2ccc(C)c(C(=O)NC3CCN(Cc4ccccc4)CC3)c2)cc1	inactive	
CC(C)[C@@H](CC(=O)N[C@@H]1CCCC[C@H]1C(=O)N[C@H](CC(=O)N[C@@H](CCC(=O)O)CC(=O)O)Cc1c[nH]c2ccccc12)NC(=O)C[C@H](Cc1c[nH]c2ccccc12)NC(=O)[C@@H]1CNCC[C@H]1N	inconclusive: 15.8 µM [inhibitor, single point]	
COc1ccc(/C=N\NC(=O)c2cc(O)c(O)c(O)c2)cc1COc1ccc(C(=O)OCC(C)C)cc1	inconclusive: 8.91 µM [inhibitor, partial curve]	
Cc1ccc(N=Cc2ccc[nH]2)c(O)c1	inconclusive: 17.7 µM [inhibitor, partial curve]	
Cc1cc(OCCCn2ccnc2)cc(C(C)C)c1	inconclusive: 17.7 µM [inhibitor, partial curve]	
CC(=O)Nc1ccc(S(=O)(=O)Oc2cccc(N3C(=O)C4CCCCC4C3=O)c2)cc1 (stereo unspecified)	inactive	
CCN(CC)C(=O)CC(c1ccc2c(c1)OCO2)c1c(OC)cc(OC)c2ccc(=O)oc12 (stereo unspecified)	inactive	
Cc1cc(C)c2[nH]c(=O)c(C(c3nnnn3C(C)(C)C)N(Cc3ccco3)CC3CCCO3)cc2c1 (stereo unspecified)	inconclusive: 22.3 µM [inhibitor, single point]	
